In the supplement of paper PMC11880418:
Structures can show the parent of a compound that is named as a salt. This is one part of the list. The data scatter; read single values as rough.

System: SUM159
Assay: ALDHbr (CSC) cell proportion score relative to DMSO vehicle (ratio to DMSO); breast (SUM159) / gastric (MKN45) / pancreatic (PANC1) / colon cancer lines; ALDHbr cells have high ALDH activity and are rich in cancer stem cells (CSC); higher = more CSC (ALDHbr) cells remaining
Details: 10 µM; 72 h
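Further: High-content imaging of ALDEFLUOR-stained cells with Hoechst-labelled nuclei in 384-well plates, triplicate wells, scored as Z-score against 0.1% DMSO vehicle, negative meaning fewer ALDHbr cells.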

`C[C@]12CCC(=O)C=C1CC[C@@H]1[C@@H]2[C@@H](O)C[C@@]2(C)[C@H]1CC[C@]2(O)C(=O)CO` [Hydrocortisone base] was tested. Which ALDHbr did it give?
The ALDHbr was 1.25.

How did the ALDHbr turn out when `C[C@@](Cc1ccc(O)c(O)c1)(NN)C(=O)O` [Carbidopa] was run?
The ALDHbr was 1.03.

`CCCCc1nc(Cl)c(CO)n1Cc1ccc(-c2ccccc2-c2nnn[nH]2)cc1` [Losartan] was tested. Which ALDHbr did it give?
Its ALDHbr is 1.05.

Which ALDHbr does the source give for `O=C(CCNNC(=O)c1ccncc1)NCc1ccccc1` [Nialamide] here?
Its ALDHbr is 0.895.

Which ALDHbr does the source give for `O=C(Nc1ccccc1)OCC(CN1CCCCC1)OC(=O)Nc1ccccc1` (centres undefined) [Diperodon hydrochloride] here?
Its ALDHbr is 0.926.

With `CN1Cc2c(N)cccc2C(c2ccccc2)C1` (centres undefined) [Nomifensine maleate] as the molecule, how does the ALDHbr read?
The ALDHbr was 0.766.

For `CCN1C(=O)NC(c2ccccc2)C1=O` (centres undefined) [Ethotoin], which ALDHbr is on record?
The ALDHbr was 1.17.

For `NCCNCCNCCNCCN` [Tetraethylenepentamine pentahydrochloride], which ALDHbr is on record?
Its ALDHbr is 1.6.

How did the ALDHbr turn out when `Cc1c(Cl)cccc1Nc1ncccc1C(=O)O` [Clonixin Lysinate] was run?
The ALDHbr was 0.842.

`Cn1nnc2c(C(N)=O)ncn2c1=O` [Temozolomide] was tested. Which ALDHbr did it give?
The ALDHbr was 1.42.

How did the ALDHbr turn out when `C[n+]1ccccc1/C=N/O` [Pralidoxime chloride] was run?
Its ALDHbr is 1.21.

For `CC(C)Oc1ccc2c(=O)c(-c3ccccc3)coc2c1` [Ipriflavone], which ALDHbr is on record?
Its ALDHbr is 2.85.

`CCC(NC(C)C)C(O)c1ccc(O)c(O)c1` (centres undefined) [Isoetharine mesylate salt] was tested. Which ALDHbr did it give?
Its ALDHbr is 2.21.

`NC(=O)c1cccnc1` [Nicotinamide] was tested. Which ALDHbr did it give?
Its ALDHbr is 1.03.

Which ALDHbr does the source give for `CCOc1ccc2nc(S(N)(=O)=O)sc2c1` [Ethoxzolamide] here?
The ALDHbr was 0.336.

With `CC(C)(C)NC(=O)[C@H]1CC[C@H]2[C@@H]3CC[C@H]4NC(=O)C=C[C@]4(C)[C@H]3CC[C@]12C` [Finasteride] as the molecule, how does the ALDHbr read?
The ALDHbr was 2.55.

`CC[N+](CC)(CC(=O)Nc1c(C)cccc1C)Cc1ccccc1` [Denatonium benzoate] was tested. Which ALDHbr did it give?
Its ALDHbr is 0.647.

For `CC1=C(CC(=O)O)c2cc(F)ccc2/C1=C\c1ccc([S+](C)[O-])cc1` (centres undefined) [Sulindac], which ALDHbr is on record?
Its ALDHbr is 1.01.

For `Nc1ncnc2c1ncn2C1OC(COP(=O)(O)O)C(O)C1O` (centres undefined) [Adenosine 5'-monophosphate monohydrate], which ALDHbr is on record?
Its ALDHbr is 1.42.

For `COC(=O)N/N=C/c1c[n+]([O-])c2ccccc2[n+]1[O-]` [Carbadox], which ALDHbr is on record?
The ALDHbr was 1.69.

With `NC(=O)N1c2ccccc2CC(=O)c2ccccc21` [Oxcarbazepine] as the molecule, how does the ALDHbr read?
The ALDHbr was 0.975.

With `Clc1ccc(Cn2c(CN3CCCC3)nc3ccccc32)cc1` [Clemizole hydrochloride] as the molecule, how does the ALDHbr read?
Its ALDHbr is 0.868.

With `OCCN1C[C@H](O)[C@@H](O)[C@H](O)[C@H]1CO` [Miglitol] as the molecule, how does the ALDHbr read?
The ALDHbr was 0.988.

For `COc1ccc2c(c1)C(=O)N(CCc1ccc(S(=O)(=O)NC(=O)NC3CCCCC3)cc1)C(=O)C2(C)C` [Gliquidone], which ALDHbr is on record?
Its ALDHbr is 1.02.

How did the ALDHbr turn out when `COC1=C(OC)C(=O)C(CCCCCCCCCCO)=C(C)C1=O` [Idebenone] was run?
Its ALDHbr is 0.902.

With `Cc1ncc([N+](=O)[O-])n1CC(O)CCl` (centres undefined) [Ornidazole] as the molecule, how does the ALDHbr read?
Its ALDHbr is 0.932.

`O=C(CCCN1CCC(O)(c2ccc(Br)cc2)CC1)c1ccc(F)cc1` [Bromperidol] was tested. Which ALDHbr did it give?
Its ALDHbr is 0.908.

How did the ALDHbr turn out when `CCN1CCCC1CNC(=O)c1cc(S(N)(=O)=O)ccc1OC` (centres undefined) [Sulpiride] was run?
Its ALDHbr is 1.29.

For `OCCN1CCN(CCCN2c3ccccc3Sc3ccc(Cl)cc32)CC1` [Perphenazine], which ALDHbr is on record?
Its ALDHbr is 0.435.

For `CCOC(=O)C1=C(COCCN)NC(C)=C(C(=O)OC)C1c1ccccc1Cl` (centres undefined) [Amlodipine], which ALDHbr is on record?
The ALDHbr was 0.427.

`C(=C\c1ccccc1)/CN1CCN(C(c2ccccc2)c2ccccc2)CC1` [Cinnarizine] was tested. Which ALDHbr did it give?
Its ALDHbr is 1.19.

For `Clc1ccc(CO/N=C(\Cn2ccnc2)c2ccc(Cl)cc2Cl)c(Cl)c1` [Oxiconazole Nitrate], which ALDHbr is on record?
Its ALDHbr is 0.947.

Which ALDHbr does the source give for `COc1ccccc1OCC(O)CN1CCN(CC(=O)Nc2c(C)cccc2C)CC1` (centres undefined) [Ranolazine] here?
The ALDHbr was 0.887.

With `COc1ccc(-c2cc(=S)ss2)cc1` [Anethole-trithione] as the molecule, how does the ALDHbr read?
Its ALDHbr is 1.63.

With `CN1CCC(=C2c3ccccc3CCc3cccnc32)CC1` [Azatadine maleate] as the molecule, how does the ALDHbr read?
Its ALDHbr is 0.781.

With `c1ccc(-c2ccc(C(c3ccccc3)n3ccnc3)cc2)cc1` (centres undefined) [Bifonazole] as the molecule, how does the ALDHbr read?
Its ALDHbr is 1.48.

For `CCCCC1=NC2(CCCC2)C(=O)N1Cc1ccc(-c2ccccc2-c2nnn[nH]2)cc1` [Irbesartan], which ALDHbr is on record?
Its ALDHbr is 1.05.

How did the ALDHbr turn out when `CO[C@H]1/C=C/O[C@@]2(C)Oc3c(C)c(O)c4c(O)c(c(/C=N/N5CCN(C)CC5)c(O)c4c3C2=O)NC(=O)/C(C)=C\C=C\[C@H](C)[C@H](O)[C@@H](C)[C@@H](O)[C@@H](C)[C@H](OC(C)=O)[C@@H]1C` [Rifampicin] was run?
The ALDHbr was 0.811.

`O=C1NCCN1c1ncc([N+](=O)[O-])s1` [Niridazole] was tested. Which ALDHbr did it give?
Its ALDHbr is 0.906.
